Consider 94 compounds from PubChem BioAssay AID1508624 (National Center for Advancing Translational Sciences (NCATS), 2021).

Among all 48,000 compounds or so, about 120 (0.25%) were called active. Not shown: some 4% with an inconclusive outcome. Calls come from the whole dose curve; as a rule, active = well fitted activation curve with a large enough effect; inconclusive = small, poorly fitted or top-dose-only effect, or another doubt; inactive = no such curve, though single readings can be large or run the other way. Some of the results follow.

The nature of this assay: Primary qHTS for Identification of Small Molecule Activators of Huntingtin-Antisense Promoter Activity. Note: nearly all actives have a fitted effect of over 55% in size. Particulars: HEK293 HTT-AS promoter firefly luciferase reporter (activity 0% = vehicle and -100% = no light), 24 h; series mostly up to 57.5 µM; activity change, positive = activation: at the top concentration. The essentials: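 Firefly luciferase signal from promoter-reporter HEK293 cells was scaled between vehicle (0%) and zero RLU (-100%). Compounds were tested at final concentrations of up to 57.5 uM over 24 h at 37 degrees C. PTC124 at 50 uM final served as control inhibitor.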
As to `CCCN1CCN(CCCNC(=O)c2cc3c(=O)[nH]c4ccccc4c3s2)CC1`, the “activity change, positive = activation” value is inactive: -14.6%.
The result for `O=C(CCSCCc1ccccn1)Nc1ccccc1C(F)(F)F` reads inactive: -12.7%; that for `CCc1ccccc1NC(=O)Cn1cc(C(=O)c2ccncc2)c(=O)c2cc(C)ccc21`, inactive: 10.9%; that for `COc1ccc(CCNC(=O)c2cc(-c3ccc(C)cc3)nc3n[nH]c(-c4ccc(F)cc4)c23)cc1OC`, inactive: 0%.
The result for `Cc1ccc(-n2ncc3c(NCCc4ccccc4)ncnc32)cc1Cl` reads inactive: 4%.
The result for `O=C(COCc1cc(-c2ccc(F)cc2)on1)Nc1cc(Cl)cc(Cl)c1` reads inactive: -17.2%; that for `Cc1ccc(N2CC(C(=O)NCCS(=O)(=O)N3CCN(c4ccc(F)cc4)CC3)CC2=O)cc1` (centres undefined), inactive: -6.12%; that for `O=C(CCSCc1cccc(F)c1)NCCc1ccccc1`, inactive: -10.4%.
For `COCCCNc1oc(-c2ccc(COc3ccccc3C)o2)nc1C#N`, the “activity change, positive = activation” value was inactive: -21%.
The result for `COc1cc(OC)c(NC(=O)Cn2c(=O)nc(-c3ccccc3)c3ccccc32)cc1Cl` reads inactive: -24.4%.
The result for `CC1=C(C(=O)Nc2cccc(F)c2)C2(CCCCCC2)OC1=O` reads inactive: -28.4%.
Regarding `COc1cccc(Cn2c(=O)n(-c3cc(C)cc(C)c3)c(=O)c3oc4ccccc4c32)c1`, the “activity change, positive = activation” value is inactive: -28.3%.
As to `Cc1ccc2c(=O)c(C(=O)c3cccc(Cl)c3)cn(CC(=O)NCc3ccccc3)c2n1`, the “activity change, positive = activation” value was inactive: -13.6%.
The result for `CCC(CC)C(=O)Nc1cccc(-c2cn3cccnc3n2)c1` reads inactive: 4.97%; that for `Cc1c(Cl)cccc1-c1ccc(C(=O)Nc2ccc3oc(-c4cccnc4)nc3c2)o1`, inactive: -17.8%; that for `CCC1=Nc2cc(C(=O)NC3CCCC3)ccc2Sc2ccc(Cl)cc21`, inactive: -46%.
For `COc1cc(CNCCSc2nnnn2C)ccc1OCc1ccccc1`, the “activity change, positive = activation” value was inactive: -0.863%.
On to `C[C@@H]1[C@H](C)CC[C@]2(C(=O)O)CC[C@]3(C)C(=CC[C@@H]4[C@@]5(C)C[C@@H](O)[C@H](O)[C@@](C)(CO)[C@H]5CC[C@]43C)[C@@H]12`, for which the “activity change, positive = activation” value is inactive: -10.3%.
The result for `Cc1ccc2nc3sc(C(=O)Nc4ccc(F)cc4)cc3cc2c1` reads inactive: 18.4%; that for `CCOC(=O)c1cc(S(=O)(=O)N2CCN(c3cccc(C)c3)C(C)C2)[nH]n1` (centres undefined), inactive: -15.4%.
Regarding `COc1ccc(N2CCN(C(=O)c3c(C)oc4ncn(CC(C)C)c(=O)c34)CC2)cc1`, the “activity change, positive = activation” value is inactive: 3.12%.
The result for `COC(=O)c1ccc(NC(=O)C(C)N2Cc3ccccc3C2=O)cc1` (centres undefined) reads inactive: -4.5%; that for `Cc1ccc(CNC(=O)c2cnc(N3CCCC3)nc2C)cc1`, inactive: -7.56%; that for `CC(C)C[C@@H](C=O)NC(=O)[C@H](CC(C)C)NC(=O)[C@H](CC(C)C)NC(=O)OCc1ccccc1`, inactive: -75.4%.
The result for `CN(C(=O)CSc1nc2ccc(NC(=O)c3ccco3)cc2s1)c1ccccc1` reads inactive: -32.8%; that for `CCc1ccccc1NC(=O)c1nnn(CC(=O)Nc2c(C)cc(C)cc2C)c1N`, inactive: -9.2%.
The result for `Cc1cc(C)c2c(NC(=O)c3ccccc3Cl)c(C(=O)Nc3ccc(C)c(C)c3)sc2n1` reads inactive: 17.1%; that for `CCOc1ccc(CCNc2ncnc3onc(C)c23)cc1OCC`, inactive: -53%; that for `COc1ccc(CCNC(=O)CCCCn2c(=O)c3ccccc3n(Cc3cccc(C)c3)c2=O)cc1OC`, inactive: -39.5%.
`CCOC(=O)c1cnc2c(OC)cccc2c1N1CCN(c2ccccc2F)CC1`: the “activity change, positive = activation” value was inactive: -43.3%.
The result for `COc1ccc(C(=O)Nc2ccc3c(c2)CCCN3S(=O)(=O)c2ccc(C)cc2)cc1` reads inactive: 21%.
As to `CCCCN(CCCC)CCn1cnc2c([nH]c3ccc(OC)cc32)c1=O`, the “activity change, positive = activation” value was inactive: -26.5%.
The result for `COc1ccc(NC(=O)c2oc3ccccc3c2NC(=O)c2cc(=O)c3ccccc3o2)cc1` reads inactive: 20.9%; that for `COc1ccc(CNC(=O)c2ccc(-c3nc(CSc4ccccc4)c(C)o3)cc2)cc1`, inactive: -21.2%.
The result for `N[C@H]1C(O)O[C@H](CO)[C@@H](O)[C@@H]1O` (some centres undefined) reads inactive: -0.548%.
`CCn1cc(C(=O)N2CCN(c3ccccc3OC)CC2)c2cc(OC)c(OC)cc2c1=O`: the “activity change, positive = activation” value is inactive: -11.9%.
With `CCC(Oc1ccccc1)C(=O)Nc1nnc(S(=O)(=O)N2CCCC2)s1` (centres undefined), the “activity change, positive = activation” value is inactive: -8.2%.
The result for `CCc1ccc(OCC(=O)Nc2c(C(=O)c3ccc(Br)cc3)oc3ccccc23)cc1` reads inactive: -8.69%; that for `OC[C@H]1O[C@@H](n2cnc3c2NC=NC[C@@H]3O)C[C@H]1O`, inactive: -21.1%.
The result for `CCOc1cccc2sc(=NC(=O)c3ccc(S(=O)(=O)N4CCOCC4)cc3)n(C)c12` reads inactive: -20.8%; that for `COc1cccc2c1Oc1ncccc1N(C(=O)CCC(=O)NCc1ccc(OC(C)C)cc1)C2`, inactive: -8.56%; that for `Cc1nn(CC(=O)NC(C)c2ccccc2)c(=O)c2cc3occc3n12` (centres undefined), inactive: -10%.
The result for `O=C(CSc1nc2c([nH]c3ccccc32)c(=O)n1-c1ccccc1)Nc1ccccc1C(F)(F)F` reads inactive: -24.1%.
As to `NC(=O)COc1ccc(-c2noc(COc3ccc(Cl)cc3)n2)cc1`, the “activity change, positive = activation” value is inactive: 6.41%.
The result for `CCOC(=O)C1=C(CN2CCN(c3ccc(Cl)cc3)CC2)NC(=O)NC1c1ccc(F)cc1` (centres undefined) reads inactive: -42.5%.
The result for `COc1ccc2c(c1)CC(C(=O)Nc1c(C)cc(C)cc1C)CO2` (centres undefined) reads inactive: -10.4%; that for `NS(=O)(=O)c1ccc(CCNC(=O)Cn2c(=O)c3cccn3c3ccc(F)cc32)cc1`, inactive: -6.69%; that for `COc1cccc(C(=O)NCC(c2ccc3c(c2)OCO3)N2CCN(C)CC2)c1` (centres undefined), inactive: -9.24%.
As to `Cc1[nH]c2ccccc2c1C1(O)C(=O)Nc2ccc(Cl)cc21` (centres undefined), the “activity change, positive = activation” value was inactive: -14.1%.
The result for `COc1cc(CNCCCSc2nnnn2C)cc(Br)c1OC` reads inactive: -6.44%; that for `O=C(Nc1cccc(F)c1)C1CCN(c2nc3ccccc3nc2C(F)(F)F)CC1`, inactive: -5.56%.
Take `Cc1ccc(-n2c3c(c(=O)[nH]c2=O)C(NC(=O)C(C)(C)C)(C(F)(F)F)C(=O)N3)cc1` (centres undefined): the “activity change, positive = activation” value was inactive: -9.47%.
The result for `CCc1ccccc1-n1nnc(-c2nc(-c3ccccc3F)no2)c1C` reads inactive: -27.6%; that for `COc1ccc(OC)c(NC(=O)CCCOc2cc(=O)n(C)c3ccccc23)c1`, inactive: -14.7%.
Take `COc1cccc(NC(=O)CSC2=Nc3ccccc3C3=NC(CCC(=O)NC4CCCCC4)C(=O)N23)c1` (centres undefined): the “activity change, positive = activation” value was inactive: -9.33%.
The result for `CCc1ccc(-c2nc(CN3CCCC(C(=O)NCc4ccccc4Cl)C3)c(C)o2)cc1` (centres undefined) reads inactive: -53.6%; that for `Cc1ccc2c(c1)-c1nc(-c3ccccc3)cc(-c3ccccc3)c1CO2`, inactive: 0.816%; that for `C=C1C[C@H]2[C@@H]3C=C(C)C4=CC(=O)CC[C@]4(C)[C@H]3CC[C@]2(C)[C@@]1(OC(C)=O)C(C)=O`, inactive: -25%.
Turning to `Cc1nn2c(=O)cc(COC(=O)c3ccccc3NC(=O)C3CCCCC3)nc2s1`, the “activity change, positive = activation” value is inactive: -5.86%.
Regarding `O=C(NCCc1csc(-c2cccc(F)c2)n1)c1ccco1`, the “activity change, positive = activation” value was inactive: -0.574%.
The result for `CCOc1ccc(N(CC)S(=O)(=O)N2CCCC(C(=O)NCc3ccccc3OCC)C2)cc1` (centres undefined) reads inactive: -27.5%.
The result for `COc1cc(-c2cc3n(C)c(C)c(CCC(=O)NC4CCC(C)CC4)c(=O)n3n2)cc(OC)c1OC` (centres undefined) reads inactive: 1.76%.
The result for `COc1cc(C(=O)N(CCCN(C)C)c2nc3c(OC)cccc3s2)cc(OC)c1OC` reads inactive: -0.332%.
As to `O=C(NC1CCCC1)c1ccc2c(c1)N(Cc1c(F)cccc1Cl)C(=O)c1ccccc1S2`, the “activity change, positive = activation” value was inactive: -26.4%.
The result for `COc1cccc(NC(=O)CN2C(=O)COc3ccc(S(=O)(=O)N4CCOCC4)cc32)c1` reads inactive: -4.02%.
The result for `Cc1[nH]c2ccccc2c1C1(O)C(=O)N(Cc2ccccc2)c2ccc(Br)cc21` (centres undefined) reads inactive: -28%.
The result for `CN(c1nnc(NC(=O)Nc2ccc(Br)cc2)s1)C1CCCCC1` reads inactive: 18.8%; that for `COc1ccccc1CNc1ncnc2onc(-c3ccc(Cl)cc3)c12`, inactive: -35.6%; that for `Cc1ccc(NC(=O)Nc2csc3c2CCCC3)c(C)c1`, inactive: -6.43%.
Turning to `CCCS(=O)(=O)NCCc1sc2nc(-c3ccc(Cl)cc3)nn2c1C`, the “activity change, positive = activation” value was inactive: -13.6%.
The result for `Cc1cc(C(=O)Nc2ccc(Cl)cc2)c2c(C)nn(-c3ccccc3)c2n1` reads inactive: -21.8%.
The result for `NC(=O)C1CCN(C(=O)c2ccccc2NC(=O)c2nsc3ccccc23)CC1` reads inactive: 18.7%; that for `CCOC(=O)c1c(NC(=O)c2cc(=O)c3c(C)cc(C)cc3o2)sc(C)c1C`, inactive: -2%.
As for `O=C(NCCn1cc(SCc2ccc(C(F)(F)F)cc2)c2ccccc21)c1cccs1`, the “activity change, positive = activation” value is inactive: -41.7%.
The result for `COc1ccc(-n2nc3c(N4CCCC(C(=O)NCc5ccccc5C)C4)nnc(C)c3c2C)cc1` (centres undefined) reads inactive: -84.2%; that for `COc1ccc2c(c1)c(CC(=O)OC/C=C(\C)CC/C=C(\C)CCC=C(C)C)c(C)n2C(=O)c1ccc(Cl)cc1`, inactive: -2.03%.
As for `CNC(=O)C1CCC(Cn2c(=O)c3sccc3n(CC(=O)Nc3ccc(C)cc3C)c2=O)CC1` (centres undefined), the “activity change, positive = activation” value is inactive: -14.4%.
For the compound `Cc1cccc(NC(=O)CSc2nc(=O)n(CCN3CCOCC3)c3c2CCC3)c1`, the “activity change, positive = activation” value was inactive: -2.92%.
The result for `Cc1ccc(-n2ncc(C(=O)NCCN3CCc4ccccc4C3)c2C2CCN(C(=O)OC(C)(C)C)CC2)c(C)c1` reads inactive: 0%.
The result for `Cc1ccc2nc(-c3ccc(N4CCOCC4)cc3)c(Nc3ccccc3C)n2c1` reads inactive: 19.2%; that for `O=C(CN1C(=O)COc2ccc(S(=O)(=O)NC3CCCC3)cc21)Nc1ccc(F)c(Cl)c1`, inactive: -45.3%.
Consider `Cc1cccc(C(=O)NCc2nnc(SCC(=O)Nc3ccccc3F)n2-c2ccccc2)c1`, for which the “activity change, positive = activation” value was inactive: -12.3%.
The result for `CCc1cccc(-n2nnc(-c3nc(-c4ccc5c(c4)OCO5)no3)c2C)c1` reads inactive: -7.56%; that for `CCOC(=O)c1cc(-c2ccc(OC)cc2)n(CCC(=O)NC2CCC(C)CC2)c1C` (centres undefined), inactive: -15.9%.
Regarding `CCOc1ccc(-c2n[nH]c3c2C(c2cccs2)N(c2ccc(Br)cc2)C3=O)cc1` (centres undefined), the “activity change, positive = activation” value is inactive: -73.4%.
The result for `COc1ccc(NC(=O)CSc2nc(-c3ccccc3)c3ccccc3n2)cc1` reads inactive: -7.74%; that for `COc1ccc(N2CCN(C(=O)Nc3ccc(Cl)cc3)CC2)cc1`, inactive: -15.5%.
The result for `COc1ccc(S(=O)(=O)N2CCN(C(=O)c3cc(-c4ccc(Br)cc4)n[nH]3)CC2)cc1OC` reads inactive: -56.8%.
The result for `CCOc1ccc(N(CC(=O)NCc2ccc(C)cc2)S(=O)(=O)c2c(C)[nH]c(=O)[nH]c2=O)cc1` reads inactive: -9.54%; that for `Brc1ccc(-c2csc(-c3nc(-c4ccc(Br)s4)cs3)n2)cc1`, inactive: -4.65%; that for `CCOC(=O)N1CCc2c(sc(NCc3ccc(N(C)C)cc3)c2C(=O)Nc2ccccc2OCC)C1`, inactive: -38.7%.
Consider `CCN1CCN(C(c2cccc(OC)c2)c2c(O)cc(C)n(Cc3ccco3)c2=O)CC1` (centres undefined), for which the “activity change, positive = activation” value was inactive: -11.7%.
The result for `CCc1ccc(NC(=O)c2sc3nc(-c4ccccc4)cn3c2C)cc1` reads inactive: -4.38%; that for `CCN(CC)CCNC(=O)Cn1cnc2sc(C)c(S(=O)(=O)N3CCN(c4ccccc4OC)CC3)c2c1=O`, inactive: 18%.
